We go through three compounds from PubChem BioAssay (NCI).

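96-well plates; 48 h exposure; 5 concentrations. Endpoints by linear interpolation between flanking doses. Not reached: highest tested concentration assigned. GI50: concentration for 50% inhibition of growth. Definition used: TGI = concentration required for complete inhibition of growth.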

In the test the test system is NCI-H322M lung. Briefly: DTP human tumour cell line panel, 48 h.

For `CC/C(=C(/c1ccc(O)cc1)c1ccc(OCCN(C)C(=O)COCCOCCNC(=O)Cc2ccc3c(c2)CN([C@@H]2CCC(=O)NC2=O)C3=O)cc1)c1ccccc1`, the GI50 is 1.16 µM and the TGI was greater than 29.4 µM.
Turning to `CCOc1ccc(/C=N/NC(=O)Cn2nc(Cc3ccc(OC)cc3)c3onc(C)c3c2=O)cc1`, the GI50 is 16.4 µM and the TGI stood at 77.3 µM.
The matching figures for `C#CCN(C)CCCOc1ccc(N(CC)C(=O)c2cc(C(C)C)c(O)cc2O)cc1Cl`: 0.737 µM and 17.3 µM.
